Target: T1, Lig1•PCNA complex prebound on the nick product (Lig1•PCNA•NP) (human, UniProt P18858 1-919; P12004)
T1 construct: DNA Ligase 1 (Lig1) WT, human, tag-free; PCNA WT, human; DNA, RFC, RPA and ATP are present; source: both proteins from E. coli, purified; assembled on PCNA-loaded Alexa647-labeled nick DNA with 3′ ddC (Sub#30); copies: + 3
Assay: other fluorescence titration; apparent; FRET from FEN1-Cy3 to Alexa647 on the DNA: Lig1 (500 nM) prebound to PCNA-loaded nick DNA with 3′ ddC (Sub#30), FEN1-Cy3 titrated; rise of Alexa647 emission fitted to a quadratic dependence; 22 °C, 50 mM HEPES-KOH pH 7.5, 100 mM KCl, 10 mM MgCl2, 1 mM ATP
Details: both partners purified

T1 sequence (P18858 whole entry, chain 1 of 2): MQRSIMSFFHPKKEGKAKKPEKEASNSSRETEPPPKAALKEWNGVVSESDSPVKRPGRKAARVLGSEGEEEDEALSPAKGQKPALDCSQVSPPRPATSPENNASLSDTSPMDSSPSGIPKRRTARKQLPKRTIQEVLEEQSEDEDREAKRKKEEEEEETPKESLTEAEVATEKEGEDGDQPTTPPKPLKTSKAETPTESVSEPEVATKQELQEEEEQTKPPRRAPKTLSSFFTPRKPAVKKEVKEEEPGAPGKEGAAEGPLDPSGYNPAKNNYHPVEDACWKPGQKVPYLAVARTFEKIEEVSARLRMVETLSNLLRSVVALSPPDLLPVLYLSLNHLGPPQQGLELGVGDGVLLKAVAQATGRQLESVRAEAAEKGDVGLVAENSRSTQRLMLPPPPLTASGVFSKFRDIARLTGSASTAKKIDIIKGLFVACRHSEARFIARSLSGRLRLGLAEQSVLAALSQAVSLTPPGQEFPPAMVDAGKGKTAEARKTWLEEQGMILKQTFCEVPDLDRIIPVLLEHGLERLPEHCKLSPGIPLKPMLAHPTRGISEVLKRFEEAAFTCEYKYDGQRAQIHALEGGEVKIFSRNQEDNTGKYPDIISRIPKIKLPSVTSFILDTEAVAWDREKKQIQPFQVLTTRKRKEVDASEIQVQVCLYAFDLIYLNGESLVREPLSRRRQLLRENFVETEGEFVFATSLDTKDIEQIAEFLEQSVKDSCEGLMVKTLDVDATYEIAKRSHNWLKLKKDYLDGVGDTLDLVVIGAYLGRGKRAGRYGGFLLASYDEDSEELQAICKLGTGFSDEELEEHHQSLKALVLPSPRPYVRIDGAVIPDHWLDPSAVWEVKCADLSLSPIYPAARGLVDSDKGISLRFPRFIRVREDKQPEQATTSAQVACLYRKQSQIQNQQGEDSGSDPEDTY
T1 sequence (P12004 whole entry, chain 2 of 2, further chain): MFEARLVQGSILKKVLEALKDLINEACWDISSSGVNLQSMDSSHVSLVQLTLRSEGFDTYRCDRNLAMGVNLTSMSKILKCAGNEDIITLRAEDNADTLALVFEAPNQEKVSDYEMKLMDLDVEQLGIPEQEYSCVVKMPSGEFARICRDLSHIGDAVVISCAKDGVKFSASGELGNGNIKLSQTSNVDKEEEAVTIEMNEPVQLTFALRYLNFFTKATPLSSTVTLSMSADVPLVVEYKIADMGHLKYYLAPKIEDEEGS

Kd: ~20 nM
B1: FEN1 S293C labeled with Cy3 (enzyme)
chain: not shown
modifications: Cy3 maleimide on S293C, final stoichiometry 1:1 Cy3 to FEN1
notes: Flap endonuclease-1 (FEN1), human, S293C; the limits […] are printed for FEN1 WT, of which this is the point mutant; also called FEN1-Cy3; Cy3-labeled FEN1; source: E. coli, purified using the SUMO system; labeled with Cy3 maleimide

Source: article PMC9666535, “Mechanistic investigation of human maturation of Okazaki fragments reveals slow kinetics” (Nature Communications, 2022)
